PubChem BioAssay AID540317 (National Center for Advancing Translational Sciences (NCATS), 2011)
The campaign covered roughly 390,000 compounds. About 2,200 (0.56%) were called active. Inconclusive results, whose numbers are uncertain, are shown with a selection of clear calls. Calls come from the whole dose curve; as a rule, active = well fitted inhibition curve with a large enough effect; inconclusive = small, poorly fitted or top-dose-only effect; inactive = no such curve, though single readings can be large or run the other way. Where the call is inconclusive, the potency comes from a doubtful curve fit.
Note: nearly all actives have a fitted effect of over 70% in size.
Potency is the fitted concentration of half-maximal effect; tags give direction and shape of the fitted curve.

These molecules were tested against Chromobox protein homolog 1 (Homo sapiens) (UniProt P83916) (assay: HTS for Inhibitors of HP1-beta Chromodomain Interactions with Methylated Histone Tails). Settings: AlphaScreen HP1-beta / biotin-H3K9me3 peptide binding; series mostly up to 114 µM.
UniProt P83916, sequence (P83916 whole entry, looked up): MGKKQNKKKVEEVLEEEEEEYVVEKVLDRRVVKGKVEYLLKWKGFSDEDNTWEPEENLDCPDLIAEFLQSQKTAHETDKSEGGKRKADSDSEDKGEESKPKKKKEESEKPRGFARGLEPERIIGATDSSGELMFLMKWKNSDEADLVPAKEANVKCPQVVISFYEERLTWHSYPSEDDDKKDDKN
In short: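 Compound inhibition of the preformed complex between 50 nM HP1-beta and 50 nM biotinylated H3K9me3 peptide was read by AlphaScreen. Buffer was PBS pH 7.4 with 0.01% Tween-20. Incubations ran 30 min at room temperature, with 10 ug/mL donor/acceptor beads.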
For `Cc1ccc(NCCC(=O)c2cccc([N+](=O)[O-])c2)c(C)c1`, the Potency was inconclusive: 28.2 µM [inhibitor, full curve].
`Cc1ccc([N+](=O)[O-])cc1NC(=O)c1ccoc1C` was tested, and the Potency was inconclusive: 39.8 µM [inhibitor, single point].
In the case of `Cc1nc(NC(=O)CC(C)C)sc1-c1csc(Nc2ccc(Cl)cc2Cl)n1`, the Potency is reported as inconclusive: 25.1 µM [inhibitor, full curve].
`COc1cc(CN2CCN(S(=O)(=O)c3ccccc3)CC2)cc(OC)c1OC` was tested, and the Potency was inconclusive: 22.4 µM [inhibitor, single point].
For `COc1c(OC2OC(C(=O)O)C(O)C(O)C2O)cc(O)c2c(=O)cc(-c3ccccc3)oc12` (stereo unspecified), the Potency was “inactive”.
With `COc1cc(C2Nc3cc(Cl)c(S(N)(=O)=O)cc3S(=O)(=O)N2)ccc1OCc1ccccc1` (stereo unspecified) the Potency was inconclusive: 70.8 µM [inhibitor, single point].
For `S=c1[nH]nc(-c2cccnc2)n1-c1ccc2c(c1)OCCO2`, the Potency was “inactive”.
With `O=C(CSc1nnc2c(n1)[nH]c1ccccc12)Nc1ccc(S(=O)(=O)Nc2ncccn2)cc1` the Potency was “inactive”.
With `Nc1ccc2c(c1)N1CCN=C1S2` the Potency was “inactive”.
With `CCOC(=O)c1c(C)[nH]c(C)c1C(=O)COC(=O)/C=C/c1cccc(Cl)c1` the Potency was inconclusive: 79.4 µM [inhibitor, single point].
`Cc1ccc(C(C)C)c(OCCCn2ccnc2C)c1` was tested, and the Potency was inconclusive: 50.1 µM [inhibitor, partial curve, poor fit].
With `COCC(=O)n1nc(-c2ccccc2)nc1NCc1ccc(N(C)C)cc1` the Potency was active: 50.1 µM.
In the case of `CN(CC(=O)Nc1c(Cl)cccc1Cl)C(=O)Cc1ccc2c(c1)CCC2`, the Potency is reported as inconclusive: 39.8 µM [inhibitor, partial curve].
In the case of `Cc1nn(-c2ccccc2)c(OC(=O)c2ccc(Cl)cc2)c1S(=O)(=O)c1ccccc1`, the Potency is reported as “inactive”.
For `Cc1cc(NC(=O)CCC(=O)N(Cc2ccco2)C(C(=O)NC2CCCC2)c2ccc(F)cc2)no1` (stereo unspecified), the Potency was inconclusive: 89.1 µM [inhibitor, single point].
For `Cc1ccc(-c2nc3cccc(C)n3c2Nc2ccc3c(c2)OCO3)o1`, the Potency was inconclusive: 31.6 µM [inhibitor, full curve].
For `CC(=O)c1cccc(NC(=O)COc2ccccc2)c1`, the Potency was “inactive”.
`NS(=O)(=O)c1ccc2nc(-c3ccccc3)c(-c3ccccc3)nc2c1` was tested, and the Potency was “inactive”.
`COc1ccc(CNc2ccc(C)cc2)cc1Br` was tested, and the Potency was inconclusive: 79.4 µM [inhibitor, single point].
With `CCCCSc1nc2c(cc1C#N)CCC2` the Potency was “inactive”.
`COc1cc(/C=C2\CCCc3c2nc2ccccc2c3C(=O)O)cc([N+](=O)[O-])c1O` was tested, and the Potency was inconclusive: 44.7 µM [inhibitor, partial curve].
With `Cc1ccc(CSC2=Nc3ccccc3C3=NC(=O)CN23)cc1` the Potency was inconclusive: 39.8 µM [inhibitor, partial curve, poor fit].
`CCOC(=O)C1CCCCN1Cc1cccc(OC)c1OC` (stereo unspecified) was tested, and the Potency was inconclusive: 15.8 µM [inhibitor, full curve, poor fit].
For `Cc1ccc(CNC(=O)C(C)C2Sc3ccccc3NC2=O)cc1` (stereo unspecified), the Potency was inconclusive: 89.1 µM [inhibitor, partial curve, poor fit].
For `CCOC(=O)c1cc(-c2ccc(F)cc2)n(CCC(=O)Nc2cc(OC)cc(OC)c2)c1C`, the Potency was inconclusive: 35.5 µM [inhibitor, partial curve, poor fit].
For `COC(=O)c1c(C(=O)OC)c2cccc3cc(-c4ccccc4)c4ccc1c4n32`, the Potency was inconclusive: 7.94 µM [inhibitor, full curve, poor fit].
For `COC(=O)N/N=C/c1cc(C)n(-c2ccc(Br)cc2)c1C`, the Potency was inconclusive: 70.8 µM [inhibitor, partial curve].
For `O=C(CN1CCN(S(=O)(=O)c2ccc3c(c2)OCCO3)CC1)Nc1cccc(F)c1`, the Potency was “inactive”.
In the case of `Cc1cccc(N2CCN(Cc3nc(-c4cccc(Oc5ccccc5)c4)oc3C)CC2)n1`, the Potency is reported as inconclusive: 39.8 µM [inhibitor, partial curve, poor fit].
`Cc1ccc(C(=O)c2c(NC(=O)c3ccccc3)sc(C)c2C)cc1` was tested, and the Potency was inconclusive: 17.8 µM [inhibitor, partial curve, poor fit].
In the case of `N#Cc1nc(/C=C/c2ccc(F)cc2)oc1N1CCCCCC1`, the Potency is reported as inconclusive: 12.6 µM [inhibitor, full curve].
In the case of `Cc1ccc(S(=O)(=O)/N=C2/C=C(Sc3ncn[nH]3)C(=O)c3ccccc32)cc1`, the Potency is reported as active: 8.91 µM.
With `CC1(C)C2CCC(C2)C1(C)NC(=O)CNCC1CCCCC1` (stereo unspecified) the Potency was inconclusive: 28.2 µM [inhibitor, partial curve, poor fit].
With `COCCn1c(C)cc(C(=O)COC(=O)c2c(C)nn(Cc3ccccc3)c2C)c1C` the Potency was inconclusive: 25.1 µM [inhibitor, partial curve].
`Cc1ccc(NC(=O)c2cc(N3C(=O)C=CC3=O)ccc2N2CCOCC2)cc1` was tested, and the Potency was inconclusive: 28.2 µM [inhibitor, partial curve].
With `CC(=O)OCCCNc1cc(SCc2ccco2)c2nonc2c1[N+](=O)[O-]` the Potency was inconclusive: 56.2 µM [inhibitor, single point].
For `Cc1cc(C)cc(OCC(=O)N(Cc2ccc(N(C)C)cc2)C2CCS(=O)(=O)C2)c1` (stereo unspecified), the Potency was inconclusive: 70.8 µM [inhibitor, partial curve].
With `CCOC(=O)c1c(C)[nH]c(C)c1C(=O)COC(=O)/C=C/c1ccc(Cl)cc1` the Potency was inconclusive: 79.4 µM [inhibitor, single point].
For `CC(NC(=O)CNC(=O)[C@@H]1Cc2ccccc2CN1)c1ccccc1` (stereo partly specified), the Potency was “inactive”.
`Cc1ccc(NC(=O)COC(=O)C2CCC2)cc1S(=O)(=O)N1CCOCC1` was tested, and the Potency was “inactive”.
With `CC1CN(C2=NC(=O)/C(=C3/C(=O)N(Cc4ccc(F)cc4)c4ccccc43)S2)CC(C)O1` (stereo unspecified) the Potency was inconclusive: 31.6 µM [inhibitor, single point].
With `O=C1C=C(O)c2c(O)cc(O)c(O)c2C1=O` the Potency was inconclusive: 3.16 µM [inhibitor, full curve, poor fit].
`O=C1c2cccc(Cl)c2C(=O)c2c1cccc2N1CCCC1` was tested, and the Potency was active: 22.4 µM.
In the case of `Cc1ccc2nc(-c3ccc(NC(=O)CCN4C(=O)c5ccccc5C4=O)cc3)sc2c1`, the Potency is reported as “inactive”.
For `COc1ccc(S(=O)(=O)Nc2cc(Sc3ncn[nH]3)c(O)c3ccccc23)cc1`, the Potency was inconclusive: 3.55 µM [inhibitor, full curve, poor fit].
`CCOC(=O)C1CCCCN1Cc1ccc(OC)c(OC)c1` (stereo unspecified) was tested, and the Potency was inconclusive: 35.5 µM [inhibitor, partial curve].
With `Cn1c(-c2ccccc2)cnc1NCc1ccccc1O` the Potency was inconclusive: 44.7 µM [inhibitor, partial curve].
In the case of `COc1ccc(N2CCN(C(=O)c3cc4c(C)nc5ccccc5c4o3)CC2)cc1`, the Potency is reported as inconclusive: 56.2 µM [inhibitor, single point].
For `CC(C)N1CCN(C(=O)c2ccc([N+](=O)[O-])cc2)CC1`, the Potency was inconclusive: 17.8 µM [inhibitor, partial curve, poor fit].
With `CNC(=S)N1N=C(c2ccc(Br)cc2)CC1c1ccc(N(C)C)cc1` (stereo unspecified) the Potency was inconclusive: 10 µM [inhibitor, partial curve].
`COc1ccc(-c2cc3nc(C)c(CCC(=O)NCc4ccccc4Cl)c(C)n3n2)c(OC)c1` was tested, and the Potency was “inactive”.
`COC(CNC(=O)CCc1c(C)nc2c(-c3ccc(F)cc3)c(C)nn2c1C)OC` was tested, and the Potency was “inactive”.
`CCc1cccc(C)c1NC(=O)C1CCN(S(=O)(=O)c2c(C)noc2/C=C/c2c(C)cc(C)cc2C)CC1` was tested, and the Potency was inconclusive: 6.31 µM [inhibitor, single point].
In the case of `N#Cc1nc(COc2ccccc2Cl)oc1NCCc1ccccc1`, the Potency is reported as inconclusive: 35.5 µM [inhibitor, partial curve].
With `Cc1ccc(C2Cc3cc(O)c(O)cc3CN2)cc1` (stereo unspecified) the Potency was inconclusive: 89.1 µM [inhibitor, single point].
For `CC(=NNC(=S)Nc1cccc(Cl)c1)c1ccccn1`, the Potency was inconclusive: 14.1 µM [inhibitor, full curve, poor fit].
For `CCC(=C(c1ccc(OC)cc1)c1ccc(OC)cc1)c1cn(CC(O)CN2CCN(C)CC2)c2ccccc12` (stereo unspecified), the Potency was active: 50.1 µM.
In the case of `CC(C)(C)C(=O)NC(=S)Nc1ccccc1N1CCCC1`, the Potency is reported as inconclusive: 17.8 µM [inhibitor, full curve].
In the case of `Cc1cc(/C=C\c2nc(O)c([N+](=O)[O-])c(=O)[nH]2)c(C)n1-c1ccccc1`, the Potency is reported as inconclusive: 50.1 µM [inhibitor, partial curve, poor fit].
In the case of `COc1ccc(Cn2nnnc2C(c2ccc(N(C)C)cc2)N2CCC(C(N)=O)CC2)cc1` (stereo unspecified), the Potency is reported as inconclusive: 39.8 µM [inhibitor, partial curve, poor fit].
With `O=[N+]([O-])c1ccc2[nH]c(=S)sc2c1` the Potency was inconclusive: 79.4 µM [inhibitor, single point].
With `COc1ccc(CNC(=O)[C@@H]2CC=C[C@@H]3CCN(Cc4ccccc4)C(=O)[C@@H]32)cc1` the Potency was inconclusive: 89.1 µM [inhibitor, single point].
`CN1CCN(C(=S)c2ccc(-c3cc(Cl)ccc3Cl)o2)CC1` was tested, and the Potency was inconclusive: 20 µM [inhibitor, full curve].
`COc1cc(/C=C2\C(=N)N3N=CSC3=NC2=O)ccc1OS(=O)(=O)c1ccccc1` was tested, and the Potency was “inactive”.
In the case of `O=C(NCSc1ccncn1)c1ccccc1`, the Potency is reported as “inactive”.
For `Cc1cc(C)nc(NS(=O)(=O)c2ccc(NC(=O)Cn3c(=O)oc4ccccc43)cc2)n1`, the Potency was “inactive”.
